# Assay results: PubChem BioAssay (NCATS)
# Where “and” joins values, the source holds several entries; their conditions need not be identical. Equal values may be shown once. Inconclusive results, whose numbers are uncertain, are shown with a selection of clear calls. Where the call is inconclusive, the potency comes from a doubtful curve fit. Calls of active or inactive are those of the source. Unless noted, calls come from the whole dose curve; as a rule, active = well fitted curve in the direction sought with a large enough effect; inconclusive = small, poorly fitted or top-dose-only effect, or another doubt; inactive = no such curve, though single readings can be large; an effect the other way counts as inactive or inconclusive.
# Assays:
# [1] = target: Aldehyde dehydrogenase, mitochondrial (Homo sapiens) (UniProt P05091); test: qHTS for Inhibitors of the Aldehyde Dehydrogenase Family (ALDH2) Confirmatory screens (AID 2061303; active = well fitted inhibition curve with a large enough effect; inconclusive = small, poorly fitted or top-dose-only effect; inactive = no such curve, though single readings can be large or run the other way; title and protocol of this record describe different tests; note: nearly all actives have a fitted effect of over 45% in size); conditions: ALDH inhibition qHTS; activity change, negative = inhibition: at 45.4 µM (top of the series)
# [2] = qHTS for Inhibitors of the Aldehyde Dehydrogenase Family (ALDH1A2, ALDH1A3, ALDH2, ALDH3A1) (AID 2061307); conditions: ALDH inhibition qHTS; activity change, negative = inhibition: at 50.3 µM (top of the series) unless noted; note: nearly all actives have a fitted effect of over 50% in size; for potency: test system not described further here
# [3] = target: Aldehyde dehydrogenase, mitochondrial (Homo sapiens) (UniProt P05091); test: qHTS for Inhibitors of the Aldehyde Dehydrogenase Family (ALDH2) Primary screen (AID 2061308); note: nearly all actives have a fitted effect of over 55% in size
# [4] = target: Retinal dehydrogenase 2 (Homo sapiens) (UniProt O94788); test: qHTS for Inhibitors of the Aldehyde Dehydrogenase Family (ALDH1A2) Confirmation screens (AID 2061314); conditions: activity, negative = inhibition: at 45.9 µM (top of the series) unless noted; note: nearly all actives have a fitted effect of over 65% in size
# [5] = target: Aldehyde dehydrogenase 1A1 (Homo sapiens) (UniProt P00352); test: qHTS for Inhibitors of the Aldehyde Dehydrogenase Family (ALDH1A1) Confirmatory screens (AID 2061316); conditions: activity change, negative = inhibition: at 47.3 µM (top of the series); note: nearly all actives have a fitted effect of over 65% in size
# [6] = target: Retinaldehyde dehydrogenase 3 (Homo sapiens) (UniProt P47895); test: qHTS for Inhibitors of the Aldehyde Dehydrogenase Family (ALDH1A3) Primary screen (AID 2061315); conditions: ALDH inhibition qHTS; activity change, negative = inhibition: at 56 µM (top of the series) unless noted
# [7] = target: Retinaldehyde dehydrogenase 3 (Homo sapiens) (UniProt P47895); test: qHTS for Inhibitors of the Aldehyde Dehydrogenase Family (ALDH1A3) Confirmatory screens (AID 2061311); conditions: activity change, negative = inhibition: at 46 µM (top of the series); note: nearly all actives have a fitted effect of over 60% in size
# [8] = target: Retinaldehyde dehydrogenase 3 (Homo sapiens) (UniProt P47895); test: qHTS for Inhibitors of the Aldehyde Dehydrogenase Family (ALDH1A3) Validation screen (AID 2061312); conditions: ALDH1A3 enzyme inhibition qHTS validation, fluorescence; activity change, negative = inhibition: at 84.7 µM (top of the series); note: nearly all actives have a fitted effect of over 45% in size
# Potency is the fitted concentration of half-maximal effect; tags give direction and shape of the fitted curve.
SMILES,Potency [1],Potency [2],Potency [3],Potency [4],Potency [5],Potency [6],Potency [7],Potency [8]
O=[N+]([O-])c1ccc(CNc2ccc([S+](=O)([O-])Nc3nccs3)cc2)c(O)c1,inactive,inactive,inactive,"inconclusive: 31.8 µM [inhibitor, partial curve, poor fit]","inconclusive: 1.01 µM [inhibitor, full curve]",,,
S=C(Nc1cc(Cl)ccn1)N1CCN(c2ccc3ccccc3n2)CC1,active: 7.94 µM,active: 14.1 µM,active: 1.58 µM,"inconclusive: 28.3 µM [inhibitor, partial curve]",active: 5.65 µM,,,
CC(=O)NC(c1cccs1)c1cc(Br)c2cccnc2c1O (stereo not drawn),"inconclusive: 11.3 µM [inhibitor, partial curve]","inconclusive: 7.98 µM [inhibitor, partial curve]","inconclusive: 11.2 µM [inhibitor, partial curve] and inconclusive: 12.6 µM [inhibitor, partial curve]","inconclusive: 14.2 µM [inhibitor, partial curve]","inconclusive: 11.3 µM [inhibitor, partial curve]","inconclusive: 14.1 µM [inhibitor, partial curve, poor fit] and inconclusive: 10 µM [inhibitor, partial curve, poor fit] and inconclusive: 8.91 µM [inhibitor, partial curve]",,
O=C(CN(Cc1cccc2ccccc12)C1CC1)Nc1ccc(N2CCOCC2)cc1,"inconclusive: 14.2 µM [inhibitor, partial curve]","inconclusive: 12.7 µM [inhibitor, partial curve, poor fit]","inconclusive: 10 µM [inhibitor, partial curve, poor fit]",active: 11.3 µM,"inconclusive: 14.2 µM [inhibitor, partial curve]",,,
COc1c(C(C)C)c(O)c(O)c2c1C(OC)[C@H]1OC(=O)[C@@]23CCCC(C)(C)[C@H]13 (stereo partly drawn),"inconclusive: 6.97 µM [inhibitor, partial curve]",inactive,"inconclusive: 12.6 µM [inhibitor, partial curve]",,"inconclusive: 5.54 µM [inhibitor, partial curve]",active: 2.82 µM,,
Cc1ccc(OCCn2c(CCNC(=O)c3cccnc3)nc3ccccc32)cc1,inactive,inactive,,,,,"inconclusive: 28.3 µM [inhibitor, single point]",
CC(=O)Nc1sc2c(c1-c1nccs1)CCNC2,"inconclusive: 8.96 µM [inhibitor, partial curve]","inconclusive: 1.12 µM [inhibitor, full curve, poor fit]","inconclusive: 39.8 µM [inhibitor, partial curve, poor fit]",,"inconclusive: 17.9 µM [inhibitor, partial curve]",,,
COc1ccc(Nc2ncc(C(=O)N3CCN(c4ccc(F)cc4)CC3)c3ccccc23)cc1,inactive,active: 15.8 µM,,,,,inactive,
Cc1sc(NC(=O)Cc2ccc3c(c2)OCO3)nc1-c1ccc2c(c1)CCN2,"inconclusive: 12.7 µM [inhibitor, partial curve]",active: 20.1 µM,"inconclusive: 28.2 µM [inhibitor, partial curve]",,active: 3.18 µM,,,
COc1ccc(N2CCN(C(=S)Nc3cc(C)ccn3)CC2)cc1,active: 10.1 µM,"inconclusive: 12.7 µM [inhibitor, partial curve]","inconclusive: 25.1 µM [inhibitor, partial curve]",,,"inconclusive: 11.2 µM [inhibitor, partial curve]",,
COc1ccc(C2=Nn3c(nnc3-c3ccccc3OC)SC2)cc1OC1CCCC1,"inconclusive: 5.62 µM [inhibitor, full curve, poor fit]",active: 15.8 µM,"inconclusive: 11.2 µM [inhibitor, partial curve, poor fit]",,"inconclusive: 17.8 µM [inhibitor, full curve]",,,
N.N.N.N.N.N.N.N.N.N.N.N.N.N.O.O.[Ru+4].[Ru+5].[Ru+5],inactive,inactive,,"inconclusive: 12.7 µM [inhibitor, partial curve]",,,"inconclusive: 22.5 µM [inhibitor, partial curve]","inconclusive: 11.2 µM [inhibitor, partial curve]"
COc1ccc(C2=Nn3c(nnc3-c3cc(OC)ccc3OC)SC2)c(OC)c1,inactive,active: 17.9 µM,,,,,inactive,
Cc1ccc(N[S+](=O)([O-])c2cc3c(cc2N[C@@H](C)CO)NC(=O)CC3)cc1N[C@@H](C)CO,"inconclusive: 8.96 µM [inhibitor, partial curve]","inconclusive: 2.01 µM [inhibitor, full curve]","inconclusive: 8.91 µM [inhibitor, partial curve, poor fit]",,"inconclusive: 20.1 µM [inhibitor, partial curve, poor fit]","inconclusive: 12.6 µM [inhibitor, single point]",,
CC(C)(C)c1ccc(S(=O)(=O)c2cnc(SCC(=O)Nc3ccc(F)c(Cl)c3)[nH]c2=O)cc1,"inconclusive: 28.3 µM [inhibitor, partial curve]",active: 12.7 µM,"inconclusive: 7.94 µM [inhibitor, partial curve, poor fit]",,active: 0.634 µM,,,
O=C(NCc1ccc2c(c1)OCO2)c1csc(N2CCN(c3ccc(F)cc3)CC2)n1,"inconclusive: 1.41 µM [inhibitor, full curve]",active: 0.708 µM,,,,,"inconclusive: 11.2 µM [inhibitor, full curve, poor fit]",
Cc1cc2ncc(C(=O)NCC(C)(C)NCC(=O)N3CCC[C@H]3C#N)cn2n1,inactive,inactive,"inconclusive: 39.8 µM [inhibitor, partial curve, poor fit]",,"inconclusive: 28.3 µM [inhibitor, single point]","inconclusive: 35.5 µM [inhibitor, partial curve, poor fit]",,
CC(=O)/C=C1/C(=O)N(C)c2ccccc21,inactive,inactive,,,,,"inconclusive: 12.7 µM [inhibitor, partial curve, poor fit]",
N#Cc1c(-c2ccc(C(=O)c3ccc(O)cc3)cc2)no[n+]1[O-],active: 10 µM,active: 11.3 µM,"inconclusive: 7.94 µM [inhibitor, partial curve, poor fit]",,active: 12.7 µM,,,
O=C(NCC#CCSc1nnc(-c2cccc3ccccc23)o1)c1cccs1,"inconclusive: 17.9 µM [inhibitor, partial curve]","inconclusive: 12.7 µM [inhibitor, partial curve]",,,,,"inconclusive: 17.9 µM [inhibitor, partial curve]",
COc1ccc(C2Nc3ccccc3C(=O)N2Cc2ccco2)cc1COc1cccc(NC(C)=O)c1 (stereo not drawn),active: 11.3 µM,active: 12.7 µM,"inconclusive: 28.2 µM [inhibitor, partial curve, poor fit]",,active: 4 µM,,,
COc1ccc(C2=Nn3c(nnc3-c3ccc(OC)cc3)SC2)cc1,"inconclusive: 31.6 µM [inhibitor, single point]",active: 7.98 µM,,,,,"inconclusive: 25.1 µM [inhibitor, partial curve]",
O=C(NCc1ccc(S(=O)(=O)c2cc(F)cc(F)c2)cc1)c1ccc2nccn2c1,"inconclusive: 0.0316 µM [inhibitor, full curve, poor fit]",active: 10.1 µM,,inactive,,,"inconclusive: 10.1 µM [inhibitor, partial curve]",inactive
O=C1Cc2cc(C(=O)c3ccco3)ccc2N1,active: 1.01 µM,active: 0.565 µM,"inconclusive: 3.55 µM [inhibitor, full curve, poor fit]",,"inconclusive: 0.634 µM [inhibitor, full curve]",,,
CC1(NC(=O)c2ccc(C#Cc3cccc(F)c3)cn2)COC1,inactive,"inconclusive: 14.2 µM [inhibitor, partial curve]",,inactive,,,inactive,inactive
CC(=O)Nc1sc2c(c1-c1nc3ccccc3s1)CN(C1COC1)C2,active: 12.7 µM,"inconclusive: 1.12 µM [inhibitor, full curve, poor fit]","inconclusive: 17.8 µM [inhibitor, partial curve, poor fit]",,active: 2.52 µM,,,
O=C(O)c1n[nH]c2c1C[C@H]1C[C@@H]21,inactive,inactive,,inactive,,,inactive,"inconclusive: 10 µM [inhibitor, full curve]"
Cc1ccc(S(=O)(=O)Nc2cnccc2C(=O)Nc2nc(-c3ccc4c(c3)CCCC4)cs2)cc1,"inconclusive: 12.7 µM [inhibitor, partial curve]",active: 22.5 µM,,,,,inactive,
COC(=O)[C@@]1(c2ccc(C)cc2)C[C@H]1CN1CCC(O)(c2ccccc2)CC1,inactive,inactive,,,,,inactive,
O=C(Nc1sc2c(c1-c1nc3ccccc3s1)CCNC2)C(F)(F)F,"inconclusive: 10.1 µM [inhibitor, partial curve]","inconclusive: 10.1 µM [inhibitor, partial curve]","inconclusive: 15.8 µM [inhibitor, partial curve]",,"inconclusive: 7.12 µM [inhibitor, full curve]",,,
